Results as given in PubChem BioAssay AID903 (National Center for Advancing Translational Sciences (NCATS), 2007).
The campaign covered roughly 55,000 compounds. About 340 (0.62%) were called active. Inconclusive results, whose numbers are uncertain, are shown with a selection of clear calls. Calls follow the shape of the dose curve; as a rule, active = well fitted cell-killing curve with a large enough effect; inconclusive = small, poorly fitted or top-dose-only effect; inactive = no such curve, though single readings can be large or run the other way. Where the call is inconclusive, the potency comes from a doubtful curve fit.

assay: qHTS Screen for Compounds that Selectively Target Cancer Cells with p53 Mutations: Cytotoxicity of p53 Null Cells at the Permissive Temperature; conditions: H1299-neo p53 null cells, ATP luminescence, 24 h, 32C; series mostly up to 46.1 µM; also: nearly all actives have a fitted effect of over 55% in size
In short: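 H1299-neo, 600 cells/well; overnight 37C; cpd up to 46 uM, 24 h at 32C; ATPlite luminescence after 20 min RT; normalized to DMSO (0%) and tamoxifen 100 uM (100% kill); Hill-fit AC50.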
Potency is read from the fitted curve at half-maximal effect; tags tell the direction and shape of the fitted curve.

Row | SMILES | Potency
1 | CCOC(=O)c1cnc2c(ccc3ccccc32)c1Nc1ccccc1OCC | inactive
2 | COc1ccc(Cn2c(=O)[nH]c3cc(C(=O)N4CCN(c5cccc(Cl)c5)CC4)ccc3c2=O)cc1 | inactive
3 | COc1ccc(C(=O)NCC(c2cccnc2)N2CCc3ccccc3C2)cc1OC (stereo not drawn) | inconclusive: 10 µM [cytotoxic, partial curve]
4 | Cn1c(=O)c2c(-c3ccccc3)n3c4ccccc4nc(-c4ccccc4)c3c2n(C)c1=O | inactive
5 | COc1ccc(NC(=O)c2csc3c2CCCCC3)cc1 | inconclusive: 12.6 µM [cytotoxic, single point]
6 | COc1cccc(NC(=O)c2ccn(C)n2)c1 | inconclusive: 15.8 µM [cytotoxic, single point]
7 | Oc1ccc(-c2nc3ccccn3c2Nc2ccc3c(c2)OCCO3)cc1 | inconclusive: 10 µM [cytotoxic, partial curve]
8 | CCCN(CCC)CCCNC(=O)c1cc2c(=O)oc3ccc(C)cc3c2s1 | inactive
9 | CCC(CC)C(=O)Nc1cc(-c2cn3cccnc3n2)ccc1OC | inconclusive: 3.16 µM [cytotoxic, single point]
10 | CCCS(=O)(=O)c1ncc(Cl)c(C(=O)N2CCN(c3ccc(OC)cc3)CC2)n1 | inconclusive: 35.5 µM [cytotoxic, single point]
11 | Cc1ccc(-c2cc(C(=O)NC(C)c3ccccc3)c3ccccc3n2)cc1C (stereo not drawn) | inactive
12 | Cc1ccc(Nc2nnc(SCC(=O)NCCN3C(=O)CSC3=O)s2)cc1 | inconclusive: 4.47 µM [cytotoxic, full curve]
13 | COc1ccc(S(=O)(=O)Nc2cccc(-c3ccc(N4CCOCC4)nn3)c2)cc1F | inconclusive: 12.6 µM [cytotoxic, partial curve]
14 | CCOC(=O)c1c(-c2ccccc2)oc2ccc(NS(=O)(=O)c3ccc(OC)cc3)cc12 | inactive
15 | Cc1ccc(O)c(/C=N/NC(=O)C2=NNC(c3ccccc3)(c3ccccc3)C2)c1 | inconclusive: 10 µM [cytotoxic, partial curve]
16 | Cc1ccc(C(Nc2ccccn2)c2ccc3cccnc3c2O)cc1 (stereo not drawn) | inconclusive: 7.94 µM [cytotoxic, partial curve]
17 | CC(C)(Oc1ccc(Cl)cc1)C(=O)Nc1cccc(-c2cn3cccnc3n2)c1 | inconclusive: 31.6 µM [cytotoxic, single point]
18 | Cc1scc(C(=O)N/N=C/c2ccco2)c1C | inconclusive: 10 µM [cytotoxic, partial curve]
19 | CCCN(CCC)CCCNC(=O)c1cc2c(-c3ccc(Cl)cc3)nn(C)c2s1 | inactive
20 | COc1cc(NC(=O)c2c(C)nn(-c3ccc(F)cc3)c2-n2cccc2)cc(OC)c1 | inactive
21 | Cc1ccc(Cl)cc1-n1c(=O)c2sc3ccccc3c2n(CC(=O)NC2CCCC2)c1=O | inconclusive: 2.82 µM [cytotoxic, single point]
22 | NC(=O)CSc1nc2ccc(NC(=O)COc3ccccc3)cc2s1 | inactive
23 | O=S(=O)(Nc1ccc(F)c(C(F)(F)F)c1)c1ccc(N2CCCCS2(=O)=O)cc1 | inconclusive: 4.47 µM [cytotoxic, single point]

Row | SMILES | Potency
24 | Fc1ccc(-c2cn3cc(Cc4ccccc4)sc3n2)cc1 | inconclusive: 2.82 µM [cytotoxic, full curve]
25 | Cn1nnc2c(N3CCN(c4cccc(C(F)(F)F)c4)CC3)ncnc21 | inactive
26 | Cc1cccc(NC(=O)CSc2nc3ccc(NC(=O)COc4ccccc4F)cc3s2)c1 | inconclusive: 15.8 µM [cytotoxic, partial curve]
27 | CS(=O)(=O)c1nc(-c2ccccc2)cc(C(F)(F)F)n1 | inconclusive: 35.5 µM [cytotoxic, single point]
28 | CCc1ccc(S(=O)(=O)c2c(C(=O)c3ccccc3)cnc3ccc(CC)cc23)cc1 | inactive
29 | COc1ccc(NC(=O)CSc2nccn2Cc2ccco2)c(OC)c1 | inconclusive: 17.8 µM [cytotoxic, single point]
30 | COCCCNC(=O)c1ccc(Cn2c(SCc3cccc(C)c3)nc3cccnc32)cc1 | inconclusive: 17.8 µM [cytotoxic, partial curve]
31 | CCc1c(C)c2ccc(O)c(CN3CCN(c4ccccc4)CC3)c2oc1=O | inconclusive: 10 µM [cytotoxic, partial curve]
32 | Cc1ccn2c(Nc3ccc4c(c3)OCCO4)c(-c3ccc(C)s3)nc2c1 | inconclusive: 15.8 µM [cytotoxic, partial curve]
33 | COc1ccc(S(=O)(=O)c2cn(Cc3ccccc3)c3cc(F)c(F)cc3c2=O)cc1 | inconclusive: 20 µM [cytotoxic, single point]
34 | COc1ccc(C(=O)Nc2ccc(N3CCOCC3)c(C(F)(F)F)c2)cc1OC | inconclusive: 31.6 µM [cytotoxic, single point]
35 | Cn1nnnc1SCCNCc1ccc(OCc2ccc(Cl)cc2)cc1 | inconclusive: 31.6 µM [cytotoxic, single point]
36 | Cc1ccc(Cn2c(CNC(=O)c3ccccc3Br)nc3cccnc32)cc1 | inconclusive: 3.55 µM [cytotoxic, single point]
37 | CC1(C)COCN1S(=O)(=O)c1ccc(C(=O)Nc2nnc(-c3ccc(Cl)s3)o2)cc1 | inconclusive: 3.16 µM [cytotoxic, full curve, poor fit]
38 | COc1ccc(NC(=O)Cn2c(SCc3ccc(C)cc3)nc3cccnc32)c(OC)c1 | inconclusive: 11.2 µM [cytotoxic, partial curve]
39 | COc1ccc(CCNC(=O)c2ccc3c(c2)N(Cc2ccc(Cl)cc2)CCS3)c(OC)c1 | inconclusive: 35.5 µM [cytotoxic, single point]
40 | COc1ccc(N2CCN(C(=O)c3oc4ccccc4c3NC(=O)c3ccccc3OC)CC2)cc1 | inactive
41 | CCCc1cc(=O)n2[nH]c(-c3ccc(C)cc3)nc2n1 | inconclusive: 12.6 µM [cytotoxic, single point]
42 | COc1ccc(NC(=O)c2noc3c2CSc2ccccc2-3)cc1Cl | inactive
43 | Cc1cccn2c(=O)c(/C=C(\C#N)S(=O)(=O)c3ccccc3)c(Oc3ccc(Cl)cc3)nc12 | inconclusive: 31.6 µM [cytotoxic, single point]
44 | O=C(CC(c1ccccc1)c1cc(Br)ccc1O)NCC1(c2ccccc2)CCCC1 (stereo not drawn) | inconclusive: 35.5 µM [cytotoxic, single point]
45 | Cc1nc(-c2ccc(F)cc2)sc1CCNC(=O)c1ccco1 | inactive
46 | COc1cc(OC)cc(C(=O)Nc2c(C(=O)Nc3ccc(F)cc3)oc3ccccc23)c1 | inconclusive: 10 µM [cytotoxic, partial curve]

Row | SMILES | Potency
47 | O=C(CC1(O)C(=O)N(CCc2ccccc2)c2ccc(Br)cc21)c1ccccc1O (stereo not drawn) | inactive
48 | CC1CCN(CCNC(=O)c2ccc(Cn3c(SCc4ccccc4)nc4cccnc43)cc2)CC1 | inconclusive: 15.8 µM [cytotoxic, partial curve]
49 | CCC(=O)Oc1ccc(-c2nc3ccccc3c(=O)o2)cc1 | inconclusive: 12.6 µM [cytotoxic, single point]
50 | COc1ccc(-c2[nH]c(-c3ccccc3)nc2SCC(=O)Nc2ccc3c(c2)OCO3)cc1 | inconclusive: 14.1 µM [cytotoxic, partial curve]
51 | Cc1cc(N2CCN(C)CC2)nc2ccc(NC(=O)Nc3ccccc3Cl)cc12 | inconclusive: 10 µM [cytotoxic, partial curve]
52 | COc1ccc(OC)c(CCNC(=O)c2sc3nc4n(c(=O)c3c2C)CCCC4)c1 | inactive
53 | CCc1ccccc1N1CC(c2nc3ccccc3n2CCC2CCCCC2)CC1=O (stereo not drawn) | inconclusive: 31.6 µM [cytotoxic, single point]
54 | CN(C)c1ccc(-c2nc3ccccn3c2Nc2ccc3c(c2)OCCO3)cc1 | inconclusive: 12.6 µM [cytotoxic, partial curve]
55 | Cc1cn2c(=O)cc(COC(=O)c3ccc(NC(=O)c4ccc(C(C)(C)C)cc4)cc3)nc2s1 | inconclusive: 6.31 µM [cytotoxic, partial curve]
56 | CCOc1ccc(Nc2ncnc3onc(-c4ccc(Cl)cc4)c23)cc1 | inconclusive: 5.62 µM [cytotoxic, single point]
57 | COc1ccc(NC(=O)c2ccco2)cc1NC(=O)c1ccc(OC(C)C)cc1 | inactive
58 | CCN(CC)c1ccc(-c2nc(-c3ccccn3)no2)cc1[N+](=O)[O-] | inactive
59 | COC(=O)C1CCN(c2csc3ccc(C)cc3c2=O)CC1 | inactive
60 | CC(C)c1ccc(-c2noc(SCC(=O)N3CCCCC3)n2)cc1 | active: 12.6 µM
61 | COc1ccc2c(c1)Cc1sc(NC(=O)c3cccc(Cl)c3)nc1-2 | active: 15.8 µM
62 | COc1ccccc1N1CCN(C(=O)c2oc3ccccc3c2N)CC1 | inactive
63 | Cc1ccnc(NC(c2cc(C)ccc2O)c2ccc3cccnc3c2O)c1 (stereo not drawn) | inconclusive: 3.98 µM [cytotoxic, full curve]
64 | COc1ccc(S(=O)(=O)N(C(=O)c2ccncc2)c2ccc3oc(C)c(C(C)=O)c3c2)cc1 | inactive
65 | CCC(C)n1c(=N)c(C(=O)NC2CCCCC2)cc2c(=O)n3cc(C)ccc3nc21 (stereo not drawn) | inactive
66 | Cc1cccc(Cn2nnc3c(=O)[nH]c(C4CCCN(C(=O)c5ccc(C(C)(C)C)cc5)C4)nc32)c1 (stereo not drawn) | inconclusive: 35.5 µM [cytotoxic, single point]
67 | COc1ccccc1C(=O)NCCc1csc(-c2ccc(C(F)(F)F)cc2)n1 | inconclusive: 4.47 µM [cytotoxic, single point]
68 | Cn1c2ccccc2c2c(C(=O)N3CCN(c4cccc(C(F)(F)F)c4)CC3)cn(C3CCCCC3)c(=O)c21 | inactive
